{"source": "PubChem BioAssay (NCATS)", "note": "This is one part of the list. These are further read-outs of the screen, such as a control signal, another cell line or another target. No call is given for them. The note in brackets gives the kind of curve behind each potency; many fits are weak. Tags give direction and shape of the fitted curve.", "data": [{"test": "qHTS drug screen for cell cycle checkpoint inhibitors in PARPi-resistant BRCA-mutant ovarian cancer cell lines. (AID 1963452)", "conditions": "PEO1/OlaR viability, CellTiter-Glo luminescence, 96 h; measured here: PEO1 parental viability", "how_it_was_run": "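PEO1, PEO4 and PEO1/OlaR ovarian cancer cells, 600 per well, exposed 96 h at 37C to a dilution series. Viability read by CellTiter-Glo luminescence, normalized to DMSO and empty wells; activity summarized as Z-AUC.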", "values": [{"molecule": "CN1CCN(Cc2ccc(Nc3ncc(Cl)c(Nc4ccccc4S(=O)(=O)N(C)C)n3)cc2)CC1", "AC50": "0.178 µM [falling, full curve]"}, {"molecule": "C[C@H]1C[C@@H](n2c(Nc3ccc(OC(F)(F)F)cc3)nc3cc(CCC(=O)O)ccc32)CC(C)(C)C1", "AC50": "15.5 µM [falling, single point]"}, {"molecule": "Cc1cc(CS(=O)(=O)c2ccccc2)cc(OCc2ccc(CN3CCC[C@@H]3CO)cc2)c1", "AC50": "13.8 µM [falling, single point]"}, {"molecule": "O=c1sn(-c2cccc3ccccc23)c(=O)n1Cc1ccccc1", "AC50": "24.5 µM [falling, single point]"}, {"molecule": "Cc1nc2c(-c3cnc(N)nc3)nc(N3CCOCC3)nc2n1C(C)C", "AC50": "1.23 µM [falling, full curve]"}, {"molecule": "CNC(=O)Cn1cc(-c2ccc3c(c2)C(F)CC32NC(=O)N(CC(=O)N(Cc3ccc(F)cc3)C(C)C(F)(F)F)C2=O)cn1", "note": "(stereo not given)", "AC50": "1.1 µM [falling, full curve, poor fit]"}, {"molecule": "C=CC(=O)N[C@H]1CN(c2nc(Nc3cn(C)nc3OC)c3ncn(C)c3n2)C[C@@H]1F", "AC50": "15.5 µM [falling, partial curve]"}, {"molecule": "Cc1cc(N2CCOCC2)ccc1Nc1nc(NC2CCCCC2)c2[nH]cnc2n1", "AC50": "15.5 µM [falling, partial curve]"}, {"molecule": "CCn1nc(C2CCN(C(=O)CCO)CC2)nc1-c1cnc(N)c(-c2nnc(C(C)(C)C)o2)n1", "AC50": "15.5 µM [falling, partial curve]"}, {"molecule": "CC(C)(C)NC(=O)Nc1cccc(Nc2ncc(F)c(NC(C)(C)CO)n2)c1", "AC50": "15.5 µM [falling, partial curve, poor fit]"}]}]}
